Assay results taken from the supplement of paper PMC4723716.
± gives the uncertainty stated by the source. Whole data set: some 9,900 compounds, median “viability index relative to DMSO control” near 1, cut for the lowest 2% near 0.85. The list shows a part of the results.

Tested on: Plasmodium falciparum NF54 stage V gametocytes
Experiment: viability index relative to DMSO control (fraction); higher = less gametocyte killing
Details: 2.5 µM, incubation time: 72 h
Summary of the method: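 Compound at 2.5 µM was incubated for 72 hr at 37°C under low oxygen with P. falciparum NF54 stage V gametocytes (0.75% gametocytemia, 1.25% hematocrit, 10 µl, serum-free screening medium) in 1,536-well plates. Staining used 3 µl of 2.5 µM MitoTracker Red CMXRos plus 0.13% saponin for one to two hours, and red particles of 20–70 µm2 were counted in one imaged field per well. Each viability index is that count relative to the plate mean of solvent-only wells.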

[1] = library set: Broad Institute DOS

Row | Structure (SMILES) | viability index [1] | viability index (library set: Broad Institute Blood Stage)
1 | O=S(=O)(c1cccc(F)c1)N1CC[C@H]2[C@H](CO)Nc3ccc(Br)cc3[C@H]21 | 1.11 ± 0.032 | 
2 | NCC[C@H]1CC[C@H](NC(=O)Cc2ccncc2)[C@@H](CO)O1 | 1.12 ± 0.035 | 
3 | CCS(=O)(=O)Nc1ccc2c(c1)C(=O)N(C)[C@H]1CC[C@@H](CC(=O)N[C@@H]3CCN(Cc4ccccc4)C3)O[C@@H]1CO2 | 1.15 ± 0.088 | 
4 | COc1ccccc1-c1ccccc1[C@@H]1[C@H](C#N)N(C(=O)CN(C)C)[C@H]1CO | 1.16 ± 0.051 | 
5 | CO[C@H]1CN(C)C(=O)c2cc(NC(=O)CC(F)(F)F)ccc2OC[C@@H](C)N(CC2CC2)C[C@H]1C | 0.999 ± 0.05 | 
6 | C[C@H](NC(=O)[C@@H]1[C@@H](CO)[C@@H]2Cn3c(ccc(-c4ccccc4F)c3=O)[C@H]1N2)c1ccccc1 | 1.11 ± 0.017 | 
7 | CO[C@H]1CC[C@@H]2CCOc3ccc(C#N)cc3C(=O)N(C)[C@@H](C)C(=O)N(C)C[C@H]1O2 | 1 ± 0.018 | 
8 | CCS(=O)(=O)N(C)C[C@H]1[C@@H](c2ccccc2)[C@@H](CO)N1C(=O)CN(C)C | 1.019 ± 0.0043 | 
9 | N#C[C@H]1[C@H](c2ccccc2)[C@H](CO)N1C(=O)c1cc(Cl)cc(Cl)c1 | 1.03 ± 0.059 | 
10 | COc1ccc2c3c([C@H](CO)N(C[C@]33CN(Cc4nccs4)C3)C(=O)CN(C)C)n(C)c2c1 | 1.03 ± 0.015 | 
11 | CC(C)NC(=O)NCC[C@H]1CC[C@@H](NS(=O)(=O)c2ccc(Oc3ccccc3)cc2)[C@@H](CO)O1 | 1.07 ± 0.011 | 
12 | O=C(NC[C@H]1[C@@H](c2ccccc2)[C@@H](CO)N1C(=O)C1CCC1)NC1CCCC1 | 0.986 ± 0.038 | 
13 | COc1ccccc1-c1ccc2c(c1)[C@H]1[C@H](CCN1S(=O)(=O)c1ccc(C)cc1)[C@@H](CO)N2 | 0.811 ± 0.098 | 
14 | O=S(=O)(NC[C@@H]1[C@@H](c2ccccc2)[C@H](CO)N1CC1CC1)c1ccccc1 | 1.02 ± 0.049 | 
15 | CCN(C[C@@H]1[C@@H](c2ccccc2)[C@H](CO)N1C(C)=O)C(=O)NC1CCCC1 | 1.02 ± 0.044 | 
16 | COc1ccc(CN2C[C@]3(CN(C3)C(=O)Cc3ccccc3)c3c([nH]c4cc(OC)ccc34)[C@@H]2CO)cc1 | 0.8953 ± 0.0047 | 
17 | O=C(NCCN1CCCCC1)[C@@H]1N[C@@H]2c3ccc(-c4cccnc4)c(=O)n3C[C@@H]2[C@H]1CO | 1.06 ± 0.075 | 
18 | CN(C)CC(=O)N1[C@@H](C#N)[C@H](c2ccccc2-c2ccc(C(=O)N(C)C)cc2)[C@@H]1CO | 1.13 ± 0.09 | 
19 | COCC(=O)Nc1ccc2c(c1)C(=O)N(C)[C@@H]1CC[C@@H](CC(=O)N3CCc4ccccc4C3)O[C@H]1CO2 | 1.06 ± 0.056 | 
20 | C[C@H](CO)N1C[C@H](C)[C@H](CN(C)S(=O)(=O)c2cccs2)OCc2ccccc2-c2ccccc2C1=O | 0.9959 ± 0.0086 | 
21 | CO[C@@H](CN(C)S(=O)(=O)c1cccc(Cl)c1)[C@@H](C)CN(C(=O)Nc1ccccc1F)[C@H](C)CO | 1.004 ± 0.01 | 
22 | CN(C)CC(=O)N[C@@H]1CC[C@@H](CCNC(=O)C2CCC2)O[C@H]1CO | 1.14 ± 0.07 | 
23 | CCN1[C@@H]2c3ccc(-c4ccc(C(=O)N(C)C)cc4)c(=O)n3C[C@@H]2[C@@H](CO)[C@@H]1C(=O)NCCOC | 1.01 ± 0.05 | 
24 | COc1cccc(NC(=O)N[C@@H]2CC[C@H](CC(=O)N3CCN(C)CC3)O[C@H]2CO)c1 | 1.04 ± 0.046 | 

Row | Structure (SMILES) | viability index [1] | viability index (library set: Broad Institute Blood Stage)
25 | COc1ccc(S(=O)(=O)N2C[C@@H](O)COC[C@H]3O[C@H](CC(=O)N[C@H]4CCN(Cc5ccccc5)C4)CC[C@@H]32)cc1 | 1.12 ± 0.07 | 
26 | O=C(C1CCC1)N1CCCCN2[C@H](C1)[C@H](c1ccc(-c3ccncc3)cc1)[C@@H]2CO | 1.06 ± 0.083 | 
27 | CCc1csc(N2[C@H](C#N)[C@H](c3ccccc3C3=CCCC3)[C@H]2CO)n1 | 1.05 ± 0.2 | 
28 | CCCNC(=O)N1[C@H](CO)[C@H](c2ccccc2)C12CN(C(=O)C1CCCCC1)C2 | 1.08 ± 0.033 | 
29 | CN(C)C(=O)[C@@H]1[C@@H](CO)[C@@H]2Cn3c(ccc(C4=CCCC4)c3=O)[C@H]1N2S(=O)(=O)c1cn(C)cn1 | 0.984 ± 0.045 | 
30 | CC(C)N(C[C@@H]1[C@@H](c2ccccc2)[C@H](CO)N1S(C)(=O)=O)C(=O)CN(C)C | 1.04 ± 0.044 | 
31 | COc1ccc(-c2ccc([C@@H]3[C@@H](CO)N4C(=O)CN(C(=O)Cc5ccccn5)C[C@@H]34)cc2)cc1 | 1.08 ± 0.027 | 
32 | C[C@@H](NC(=O)C[C@H]1C[C@@H]2c3cc(NS(=O)(=O)c4ccc(F)cc4)ccc3O[C@@H]2[C@@H](CO)O1)c1ccccc1 | 1.03 ± 0.043 | 
33 | COc1ccc(-c2ccc3n(c2=O)C[C@H]2[C@H](CO)[C@@H](C(=O)N4CCOCC4)N[C@@H]32)cc1 | 0.98 ± 0.074 | 
34 | CCS(=O)(=O)N[C@H]1CC[C@H](CC(=O)NCc2ccc(Cl)cc2)O[C@H]1CO | 1.02 ± 0.032 | 
35 | COc1ccc2c3c([nH]c2c1)[C@@H](CO)N(C[C@]31CN(C1)S(=O)(=O)c1cccs1)C(C)=O | 1.092 ± 0.0038 | 
36 | CC(C)C#Cc1ccc([C@@H]2[C@@H](CO)N3C(=O)CN(C(=O)Cc4ccccc4)C[C@@H]23)cc1 | 1.07 ± 0.047 | 
37 | Cc1noc(C)c1S(=O)(=O)N(C)C[C@@H]1Oc2c(NS(=O)(=O)c3cn(C)cn3)cccc2C(=O)N([C@@H](C)CO)C[C@H]1C | 1.01 ± 0.038 | 
38 | C[C@H]1CC(=O)N[C@@H](c2ccccc2)C/C=C\C[C@H](c2ccc3c(c2)OCO3)NC1=O | 1.01 ± 0.037 | 
39 | O=C(NCC[C@@H]1CC[C@H](NC(=O)c2ccncc2)[C@@H](CO)O1)Nc1ccc(Cl)cc1 | 1.09 ± 0.037 | 
40 | COc1ccc2c3c([C@@H](CO)N(C[C@]33CCN(CC4CCOCC4)CC3)C(=O)NC(C)C)n(C)c2c1 | 0.97 ± 0.013 | 
41 | COc1ccc(C#Cc2ccc([C@@H]3[C@@H](CO)N4CCCCN(C(=O)Nc5cccc(F)c5)C[C@H]34)cc2)cc1 |  | 0.654 ± 0.049
42 | CC(C)(O)C#Cc1ccc([C@H]2[C@@H](CO)N3CCCCN(S(C)(=O)=O)C[C@@H]23)cc1 | 1.03 ± 0.038 | 
43 | CN1CCN(C(=O)C[C@@H]2CC[C@@H]3[C@H](COC[C@@H](O)CN3CC3CCCCC3)O2)CC1 | 1.05 ± 0.041 | 
44 | N#C[C@H]1[C@H](c2ccc(-c3cccc(F)c3)cc2)[C@H](CO)N1C(=O)CN1CCOCC1 | 1.09 ± 0.024 | 
45 | C[C@@H]1CCCCO[C@@H](CN(C)S(=O)(=O)c2ccc(F)cc2)[C@H](C)CN([C@H](C)CO)C(=O)c2cc(N(C)C)ccc2O1 | 1.06 ± 0.075 | 
46 | N#C[C@H]1[C@@H](c2ccc(C#CC3(O)CCCC3)cc2)[C@@H](CO)N1C(=O)C1CCCCC1 | 1.08 ± 0.021 | 
47 | CN1C(=O)c2cc(NC(=O)c3cscn3)ccc2OC[C@@H]2O[C@@H](CC(=O)N3CCOCC3)CC[C@H]21 | 1.08 ± 0.077 | 
48 | CCNC[C@H]1[C@@H](c2ccccc2)[C@@H](CO)N1C(=O)Cc1ccccn1 | 0.97 ± 0.032 | 

Row | Structure (SMILES) | viability index [1] | viability index (library set: Broad Institute Blood Stage)
49 | C[C@@H]1CN([C@@H](C)CO)C(=O)c2cc(NC(=O)CCC(F)(F)F)ccc2O[C@@H](C)CCCCO[C@H]1CN(C)C(=O)c1ccncc1 | 1.17 ± 0.031 | 
50 | CCCNC(=O)N1C[C@]2(CCN(Cc3nccs3)CC2)c2c([nH]c3cc(OC)ccc23)[C@@H]1CO | 1.09 ± 0.019 | 
51 | COc1ccc2c3c([nH]c2c1)[C@H](CO)N(Cc1ccc(F)cc1)C[C@]31CN(C)C1 | 0.999 ± 0.012 | 
52 | Cc1ccc(S(=O)(=O)Nc2ccc3c(c2)C(=O)N([C@H](C)CO)C[C@@H](C)[C@@H](CN(C)Cc2ccc(C(F)(F)F)cc2)O3)cc1 | 1.05 ± 0.083 | 
53 | Cc1nn(C)cc1NC(=O)C[C@@H]1CC[C@@H]2[C@@H](COc3ccc(NC(=O)C4CCOCC4)cc3C(=O)N2C)O1 | 1.01 ± 0.17 | 
54 | O=C(c1ccc(F)cc1)N1CC(=O)N2[C@H](C1)[C@@H](c1ccc(C#CCC3CCCC3)cc1)[C@@H]2CO | 1.08 ± 0.011 | 
55 | CO[C@H](CN(C)S(=O)(=O)c1ccc(C)cc1)[C@@H](C)CN(C(=O)Nc1ccccc1F)[C@H](C)CO | 1.04 ± 0.057 | 
56 | COc1ccc2c3c([C@H](CO)N(Cc4ccccc4F)C[C@]33CCN(CC3)C(=O)C3CCOCC3)n(C)c2c1 | 0.926 ± 0.078 | 
57 | COc1ccccc1NC(=O)N1C[C@@H](O)COC[C@@H]2O[C@@H](CC(=O)NCCc3ccncc3)CC[C@H]21 | 1.038 ± 0.0098 | 
58 | Fc1cccc(-c2ccc([C@H]3[C@@H]4CN(Cc5cncnc5)C[C@H]3N4)cc2)c1 | 1.14 ± 0.068 | 
59 | CC(C)C(=O)Nc1ccc2c(c1)C(=O)N(C)[C@H]1CC[C@@H](CC(=O)NCCc3ccccc3)O[C@@H]1CO2 | 1.03 ± 0.06 | 
60 | COc1ccccc1CN1[C@@H]2CN(C(=O)C3CCOCC3)c3ccccc3[C@@H]2[C@@H]1CO | 1.04 ± 0.051 | 
61 | COc1ccc2c3c([C@@H](CO)N(C[C@]33CCN(CC3)C(=O)c3ccccn3)S(C)(=O)=O)n(C)c2c1 | 0.961 ± 0.09 | 
62 | CC(C)COC(=O)N(C)C[C@@H]1OCc2ccccc2-c2ccccc2C(=O)N([C@@H](C)CO)C[C@H]1C | 0.963 ± 0.14 | 
63 | Cc1noc(C)c1NC(=O)N(C)C[C@@H]1Oc2ccc(NC(=O)Cc3cn(C)c4ccccc34)cc2CC(=O)N([C@H](C)CO)C[C@@H]1C | 1.01 ± 0.026 | 
64 | COc1ccc(-c2ccc([C@H]3[C@@H](C#N)N(C(=O)NC(C)C)[C@H]3CO)cc2)cc1 | 0.911 ± 0.012 | 
65 | CCCNC(=O)N(C)C[C@@H]1Oc2cc(C#C[C@H](C)O)ccc2S(=O)(=O)N([C@H](C)CO)C[C@@H]1C | 0.995 ± 0.11 | 
66 | O=C(CCN1CCCCC1)N[C@@H]1CC[C@@H](CCn2cc(-c3cccc(F)c3)nn2)O[C@@H]1CO | 1.12 ± 0.082 | 
67 | C[C@H](NC(=O)C[C@H]1CC[C@@H]2[C@H](COc3ccc(NC(=O)C4CCOCC4)cc3C(=O)N2C)O1)c1ccccc1 | 1.19 ± 0.15 | 
68 | COc1ccccc1NC(=O)N1CC(=O)N2[C@@H](CO)[C@@H](c3ccc(C#CC(C)C)cc3)[C@@H]2C1 | 1.094 ± 0.0054 | 
69 | C[C@@H]1CN([C@H](C)CO)C(=O)c2ccccc2-c2ccccc2CO[C@@H]1CN(C)S(=O)(=O)c1cn(C)cn1 | 1.01 ± 0.035 | 
70 | CN(C)CC(=O)N1[C@H](CO)[C@H](c2ccc(-c3cccc(C(=O)N(C)C)c3)cc2)[C@@H]1C#N | 0.929 ± 0.014 | 
71 | CO[C@H](C(=O)N(C)C[C@H]1OCc2ccccc2-c2ccccc2C(=O)N([C@@H](C)CO)C[C@H]1C)c1ccccc1 | 0.992 ± 0.068 | 
72 | CCCN1[C@H](CO)[C@H](c2ccc(C#Cc3ccccc3)cc2)[C@@H]1CNC1CCCC1 | 0.914 ± 0.021 | 
